Measurements reported in the supplement of paper PMC3334620.
Over roughly 33,000 sequences, “E-score (-0.5 to 0.5)” has its median near -0.012; the highest 2% begin near 0.29. The list shows a part of the results.

target: T1, Ybr033w (UniProt P38073); assay: PBM E-score (8-mer binding enrichment) (E-score (-0.5 to 0.5)); higher = stronger / more preferred TF binding; most listed sequences are background and not binding sites; conditions: protein concentration: 200 nM; construct: GST-full length
T1 sequence: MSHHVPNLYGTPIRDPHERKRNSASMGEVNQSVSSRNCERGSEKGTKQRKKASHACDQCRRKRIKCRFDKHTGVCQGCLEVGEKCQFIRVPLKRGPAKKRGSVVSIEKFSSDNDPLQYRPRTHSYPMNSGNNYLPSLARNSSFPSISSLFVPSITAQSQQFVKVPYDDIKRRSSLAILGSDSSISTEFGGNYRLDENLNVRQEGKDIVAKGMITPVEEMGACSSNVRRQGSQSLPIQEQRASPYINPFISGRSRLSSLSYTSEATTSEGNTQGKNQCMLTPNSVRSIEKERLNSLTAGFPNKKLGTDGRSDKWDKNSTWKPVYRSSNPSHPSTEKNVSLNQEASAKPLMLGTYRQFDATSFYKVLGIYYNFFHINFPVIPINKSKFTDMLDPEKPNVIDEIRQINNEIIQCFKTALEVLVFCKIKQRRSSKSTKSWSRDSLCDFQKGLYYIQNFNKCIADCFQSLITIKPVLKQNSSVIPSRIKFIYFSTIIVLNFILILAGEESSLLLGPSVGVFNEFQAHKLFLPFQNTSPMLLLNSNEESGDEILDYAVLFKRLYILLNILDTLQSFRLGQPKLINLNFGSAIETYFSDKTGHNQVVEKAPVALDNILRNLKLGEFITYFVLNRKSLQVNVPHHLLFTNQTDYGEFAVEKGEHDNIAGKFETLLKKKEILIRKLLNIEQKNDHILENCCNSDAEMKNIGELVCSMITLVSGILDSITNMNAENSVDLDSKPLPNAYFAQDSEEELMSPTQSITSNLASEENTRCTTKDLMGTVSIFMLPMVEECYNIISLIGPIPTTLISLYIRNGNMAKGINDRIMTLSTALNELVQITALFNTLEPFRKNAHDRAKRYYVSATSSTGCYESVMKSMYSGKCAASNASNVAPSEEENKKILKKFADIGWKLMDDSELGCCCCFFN
How it was run: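 Universal all-10-mer Agilent arrays, double-stranded by primer extension on fresh or once-stripped slides, were probed with about 100-200 nM GST-tagged yeast transcription factors made by PURExpress. Fluorescent anti-GST detected bound protein, and masliner normalised the scans. E-scores from the Universal PBM Analysis Suite were given to each ungapped eight-base word pooled with its reverse complement.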

Sequence | PBM E-score
GGACGCGA | -0.0773
CCGCTAGC | -0.201
TAGCAACA | 0.147
ACCTTACC | 0.0718
ACCAATAG | -0.167
CCTCTGCC | -0.254
AAGCACCA | -0.116
AATGCCCG | -0.0749
CGAATGTC | -0.0311
AGTGCTTG | 0.0734
AACATACG | 0.163
CTCTCCTA | -0.0592
ATTTGCCG | 0.135
GGCCTGAC | -0.199
ACATTAGG | -0.0103
AAGCTCGT | -0.0751
ATTCTTTC | 0.137
GAGCGAGA | 0.0977
GACAAGCA | -0.192
CACTGGAA | 0.0564
ACTGGAAA | 0.0843
ATGTGGGA | 0.0288
GAACATTC | 0.282
GCTGTACA | -0.131
AATTTGCG | 0.132

Sequence | PBM E-score
CGAGGGTC | -0.397
GAGGCGAA | -0.0281
CTTGACAA | 0.00502
AGGCGACC | -0.298
GATCATCA | 0.0496
TCACCTGA | -0.136
ATCGATCA | 0.0799
ACAGAAGT | 0.0131
CCATGGAC | -0.163
CCGTAAAC | 0.113
GCCAGCCC | -0.332
CCGCAGGA | 0.00576
CGAGCCTC | -0.169
CGCCGATA | -0.0854
ACGCCTCT | -0.0972
ACGAAGGC | -0.109
ATCGCGCG | 0.1
ACCGAAGC | -0.195
GTACACAA | 0.0684
GTACAACA | 0.0897
CATGCCGG | -0.0475
ATACATGC | -0.0732
CGCGTTCA | 0.0712
CTATGACA | 0.11
GCAGGAAC | 0.00918

Sequence | PBM E-score
CGTCTTGA | 0.0381
ACGATGGC | -0.036
AACAGAAA | 0.169
TACTGGGA | 0.14
ACCCGAGG | -0.231
AGCGAGGG | -0.183
CGAAAGAA | 0.0925
AGTGCGAC | -0.186
TGTGTTAA | 0.277
ATGGTTTA | 0.235
CCATTATA | 0.018
CTCGTTGC | 0.0368
GTGTAATA | 0.133
ATGGCCAA | 0.0926
GCGGGCCA | -0.23
CTCTTGTC | -0.0901
AGATTTAG | 0.215
TACATTAA | 0.345
ACATGGTA | 0.0129
CAAGGGCA | -0.109
ACGCCATC | -0.127
ATGAGACC | -0.157
ATCAAAGG | 0.105
CCACCGAA | -0.0975
ATTCATGA | 0.0701

Sequence | PBM E-score
CGGACAAG | -0.0192
CACTCCCG | 0.0398
CTAAGAAG | 0.172
GAGCGACC | -0.188
CAAACCCA | 0.119
CGTATCCA | -0.0535
GAATAGTA | 0.183
AACACGCC | -0.211
GGATAAGA | -0.0485
AGTAAATC | 0.274
AAGATTGA | 0.207
GAAATGTC | 0.00409
ACATTTAT | 0.184
GCTCTTTA | 0.119
ACTGAGAA | 0.122
GCAACCCC | -0.224
ACGGACTC | -0.207
CGGGATTA | 0.312
ATAAATGG | 0.12
ATGACGAG | -0.187
AGCATTAG | 0.126
ATCGTTGA | 0.176
CACCTTAG | -0.0996
ATCGTCAA | 0.0944
ACCCACGT | 0.0118

Sequence | PBM E-score
CTCTCTGC | -0.105
AAACGGTA | 0.109
GTATCGGA | 0.0102
ACACGAAT | 0.177
CAGCTCGG | -0.214
AACCTAAT | 0.156
AAGCCAGA | -0.0756
CTGCCTGA | 0.0559
AATATGAA | 0.242
ATTCCGCG | 0.0377
ACTACCGA | -0.154
ATCACAAT | 0.147
CACGGAAA | 0.0601
GAGTCCGC | -0.393
TAGATGGA | 0.148
GTAGAATA | 0.164
GGACGCAC | -0.094
CTAGCAAC | 0.0221
ACGTGACG | -0.0117
TCCACGCA | -0.0247
ACGGACAT | 0.00601
AGCAGACA | -0.168
CACAAAGG | 0.084
CCACAGCC | -0.229
CCCAGTCC | -0.0616

Sequence | PBM E-score
CCCACTGA | -0.134
CTCCAGAG | -0.185
GTGACATA | 0.087
AGGACTGG | -0.00354
CCTCCTAG | -0.00706
GGGTGTAA | -0.0396
AATTCAAA | 0.207
ACCAAGGG | -0.0531
ATAGTCAA | 0.104
AGGGTGCC | -0.355
GGTCGCGA | 0.113
ATCCTAAA | 0.0666
GGACATGA | -0.0967
GCAAGTCA | -0.0929
ACTGACAA | 0.12
ACAACTAA | 0.195
ACCTAATA | 0.272
TCGGGGCA | -0.2
TCATCGGA | 0.109
CCAGAAGG | 0.0099
GTGCTTAA | 0.0607
ATCGTCAC | 0.0175
TAGGATAA | 0.191
CGCTAACC | -0.154
GACCTCCC | -0.249

Sequence | PBM E-score
ACATTTTC | 0.0229
AAATAAGG | 0.00755
AGCTCCAC | -0.183
ACACGATG | -0.0592
AGGAAGAC | -0.214
GCATTAAC | 0.0724
ACGCCTCA | -0.0842
ATCGGCGC | -0.0516
GGTATAAC | 0.0214
GCGCCCGA | -0.175
GTTACTTA | 0.18
AGTTTTAG | 0.0593
AAGACGCA | -0.0977
CACCAGAG | -0.189
TAGCGACA | 0.0341
CGACATAA | 0.125
GAAGTTGC | -0.233
AGCTATAC | -0.0639
ACCGATGG | -0.136
CTCGCAGC | -0.182
GTAGGCCA | -0.119
CAGTGGCG | -0.227
